# Laboratory results taken from the RNAGym collection of RNA variant scans (doi:10.7554/elife.90254).
# The source gives no read counts; variants with many changes may rest on few reads.
# B1: LINE1-full (parent)
# chain: UACGUAGGUGGUUUUCCCCUGAUAGUGCUAAGGGGGCCUGGAAGUUUGGACUGGGCAGAGCUCAACACAGCGUGGCAAAGUGGCUGUGGCUAGACUGCCUCUCUGGAUUCCUCGUCACUCAGCAGGGCAUCUCUGAGAGAAAUGCC
# Variants of: B1
# Assay: self-cleavage, relative activity (ratio to wild type); higher = more cleavage; in vitro, sequencing; the parent is a self-cleaving ribozyme
row,Variant,self-cleavage
1,UACGUAGGUGGCUUUCCCCUGAUAGUGCUAAGGGGGCCUGGAAGUUUGGACUGGGCAGAGCUCAACACAGCGUGGCGAAGUGGCUGUGACUAGACUGCCUCUCUGGAUUCCUCGUCACUCAGCAGGGCAUCUCUGAGAGAAAUGCC,0.05
2,UACGUAGGUGGUUAUCCCCUGAUAGUGCUAAGGGGGCCUGGAAGUUUGGACUGGGCGGAGCUCUACACAGCGUGGCAAAGUGGCUGUGGCUAGACUGCCUCUCUGGAUUCCUCGUCACUCAGCAGGGCAUCUCUGAGAGAAAUGCC,0.23
3,UACGUAGGUGGUCUUCCCCUGAUAGUGCUAAGGGGGCCUGGAAGCUUGGACUGGGCAGAGCCCAACACAGCGUGGCAGAGUGGCUGUGGCUAGACUACCUCUCUGGAUUCCUCGUCACUCAGCAGGGCAUCUCUGAGAGAAAUGCC,0
4,UACGUAGGUGGUUUUCCCCUGAUAGUGCUAAGGGGGCCUGGAAGUUUGGACUGGGCAGAGCUCAACACAGCGUGGCAAAGUGGCUGUGGCUAGACUGCCUCUCUGGAUUCCUCGUCACUCAGCAGGGCGCCUCUGAGAGGAAUGCC,1.74
5,UACGUAGGUGGUUUUCCCCUGAUAGUGCUAAGGGGGUCAGGAAGUUUGGACUGGGCAGAGCUCAACUCAGCGUGGCACAGUGGCUGUGGCUAGACUGCCUCUCUGGAUUCCUCGUCACUCAGCAGGGCAUCUCUGAGAGAAAUGCC,0.09
6,UACGUAUGUGGUUUGCCCCUGAUAGUGCUAAGGGGGCCUGGAAGUUUGGACUGGGCAGAGCUCAACACAGCGUGGCAAAGUGGCUGUGGCUAGGCUGCCACUCUGGAUUCCUCGUCACUCAGCAGGGCAUCUCUGAGAGAAAUGCC,0.26
7,UACGUAGGUGGUUUUCCCCUGAUAGUGCUAAGGUGGCCUGGAAGUUUGGACUGGGCAGAGCCCAACACAGCGUGGCAAAGUGGCUGUGGCGAGACUGCCUCUCUGGAUUCCUCGCCACUCAGCAGGGCAUCUCUGAGAGAAAUGCU,0.64
8,UACGUAGGCGGUUUUCCCCUGAUAGUGCUAAGGGGGCCUGGGAGUUUGGACUGGGCAGAGCUCAACACUGCGAGGCAAAGUGGCUGUGGCUAGACUGCCUCUCUGGAUUCCUCGUCACUCAGCAGGGCAUCUCUGAGAGAAAUGCC,0.06
9,UACGUAGGUGGUUUUCCCCUGAUAGUACUUAGGGGGCCUGGGAGUUUGGACUGGGCAGAGUUCAACACAGCGUGGCAAAGUGGCUGUGGCUAGACUGCCUCUCUGGAUUCCUCGUCACUCAGCAGGGCAUCUCUGAGAGAAAUGCC,0.04
10,UACGUAGGUGGUUUUCCCCUGAUAGUGCUAAGGGGGCCUGGAGGUUUGGACUGGGCAGAGCUCAACACAGCGUGGCAAAGUGGCUGUGGCUAGACUGCCUCUCUGGGUUCCUCGUCACUCAGCAGGGCAUCUCCGAGAGAAGUGCC,2.3
11,UGCGUAGGUGGUUUUCCCCUGAUAGUGCUAAGGGGGCCUGGAAGUUUGGACUGGGCAGAGCUCAACACAGCGUGGCAAAGUGGCUGUGGCUAGACUGCCUCUCUGGAUUCCUCGUCUCUCAGCAGGGCAUCUCUGAGAGAUAUGCC,1
12,UACGUAGGUGGUUUUCCCCUGAUAGUGCUAAGGGGGCCUGGAAGUUUGGACUGGGCGGAGCUCAACACAGCGUGGCAAAGUGGCUGUGGCUAGACUGCCUCUCUGGGUUCCUCGUCGCUCAGCAGGGCAUCUCUGAGAGAAAUGCC,0
13,UACGUAGGUGGUUUUCCCCUGAUAGUGCUAAGGGGGCCUGGAAGUCUGGACUGGGCAGAGCUCAACACAGCGUGGCAAAGUGGCUGUGGCUAGACUGCCUCUCUGGAUUCCUCGUCACUCAGCAGGGCAUUUCUGAGAGAGAUGCC,0.97
14,UACGUAAGUGGUUUUCCCCUGAUAGUGCUAAGGGGGCCUGGAAGUUUGGACUGGGCAGAGCUCAACACAGCGUGGCAAAGUGGCUGUAGCUAGACUGCCUCUCUGGAUUCCUCGUCACCCAGCAGGGCAUCUCUGAGAGAAAUGCC,0.06
15,UACGUAGGUGGUUCUCCCCUGAUAGUGCUAAGGGGGCCUGGAAGUUUGGACUGGGCAGAGCUCAACACAGCGUGGCAAAGUGGCUGUGGCUAGACUGCCUCUCUGGAUUCCUCGACGCUCAGCAGGGCAUCUCUGAGAGAAAUGCC,1.17
16,UACGUAGGUGGUUUUCCCCUGAUAGUGCUUAGGGGGCCUGGAAGUUUGGACUGGGCAGAGCUCAACACAGCGUGGCAAAGUGGCUGUGGCUAGACUGCCUCUCUGGAUUCCUCGUCUCUCAGCUGGGCAUCUCUGAGAGAAAUGCC,0.79
17,UACGUAGGUGGUUUUCCCCUGAUAGCGCUAAGGGGGCCUGGAAGUUUGGACAGGGCAUAGCUCAACACAGCGUGGCAAAGUGGCUGUGGCUAGUCUGCCUCUCUGGAUUCCUCGUCACUCAGCAGGGCAUCUCUGAGAGAAAUGCC,0.06
18,UACGUAGGUGGUUUUCCCCUGAUAGUACCAAGGGGGCCUGGAAGUUUGGACUGGGCAGAGCUCAACUCAGCGUGGCAAAGUGGCUGUGGCUAGACUGCCUCUCUGGAUUCCUCGUCACUCAGCAGGGCAUCUCUGGGAGAAAUGCC,0.04
19,UACGUAGGUGGUUUCCCCCUGAUAGCGCUAAGGGGGCCUGGAAGUUUGGACUGGGCAGAGCUCUACACAGCGUGGCAAAGUGGCUGUGGCUAGACUGCCUCCCUGGAUUCCUCGUCACUCAGCAGGGCAUCUCUGAGAGAAAUGCC,0.83
20,UACGUAGGUGGUUUUCCCCUGAUAGUGCUGAGGGGGCCUGGAAGUUUGGACUGGGCGGAGCUCAACACAGCGUGGCAAAGUGGCUGUGGCUAGACCGCCUCUCUGGAUUCCUCGUCACUCAGCAGGGCAUCUCUGAGAGAAAUGCC,1.84

row,Variant,self-cleavage
1,UACGUAGGUGGUUAUCCCCUGAUAGUGCUAAGGGGGCCUGGAAGUUUGGACUGGGCAGAGCCCAACACAGCGUGGCAAGGUGGCUGUGGCUUGACUGCCUCUCUGGAUUCCUCGUCACUCAGCAGGGCAUCUCUGAGAGAAAUGCC,0
2,UACGUAGGCGGUUUUCCCCUGAUAGUGCUAAGGGGGCCUGGAAGUCUGGACUGGGCAGAGCUCAACACAGCGUGGCAAAGUGGCUGUGGCUAGACUGCCUCUCUGGAUUCCUCGUCACUCAGCUGGGCAUCUCUGAGAGAAAUGCC,2.87
3,UACGUAGGUGGUUUUCCCCUGAUAGUGCCAAGGGGGCCCGGAAGUUUGGACUGGGCAGAGCCCAACACAGCGUGGCAAAGUGGCUGUGGCUAGACUGCCUCUCUGGAUUCCUCGUCACUCAGCAGGGCAUCUCUGAGAGAAAUGCC,0
4,UACGUAGGUGGUUUUCCCCUGAUAGCGCUAAGGGGGCCUGGAAGUUUGGACUGGGCAGAGCUCAACACAGCGUGGCAAAGUGGCUGUGGCUAGACCGCCUCUCUGGGUUCCUCGUCACUCAGCAGGGCAUCUCUGAGAGAAAUGCC,0.13
5,UACGUAGGUGGUUUUCCCCUGAUAGUGCUAAGGGGGCCUGGAAGUUUGGACUGGGCAGAGCUCAACACCGCGUGGCAAAGUGGCCGUGGCUAGACUGCCUCCCUGGAUUCCUCGUCACUCAGCAGGGCAUCUCUGAGAGAAAUGCC,0.48
6,UACGUAGGUGGUUCUCCCCUGAUAGUGCUAAGGGGUCCUGGAAGUUUGGACUGGGCAGAGCUCGACACAGCGUGGCAAAGUGGCUGUGGCUAGACUGCCUCUCAGGAUUCCUCGUCACUCAGCAGGGCAUCUCUGAGAGAAAUGCC,0.26
7,UACGUAGGUGGUUUUCCCCUGAUAGUGCUAAGGGGGCCUGGUGUUUUGGACUGGGCAGAGCUCAACACAGCGUGGCAAAGUGGCUGUGGCUAGACUGCCUCUCUGGAUUCCUCGUCACUCAGCAGGGCAUCUCUGAGAGAAAUGCC,0.97
8,UACGUAGGUGGUUUUCCCCUGAUAGUGCUAAGGGGGCCUGGAAGUUAGGACUGGGCAGAGCCCAACACAGCGUGGCUAAGUGGCUGUGGCUAGACUGCCUCUCUGGAUUCCUCGUCACUCAGCAGGGCAUCUCUGAGAGAAAUGCC,0.06
9,UACGUAGGUGGUUUUCCCCUGAUAGUGCUAUGGGGGCCUGGAAGUUUGGACUGGGCAGAGCUCAACACAGCGUGGCAAAGUGGCUGUGGCUAGACUGCCUCUCAGGAUUCCUCGUCACUCAGCAGGGCAUCUCUGAGAGAAGUGCC,1.23
10,UACGUAGGUGGUUUUCCCCUGAUAGUGCUAAGGGGGCCUGGAGGUAUGAUCUGGGCAGAGCUCAACACAGCGUGGCAAAGUGGCUGUGGCUAGACUGCCUCUCUGGAUUCCUCGUCACUCAGCGGGGCAUCCCUGAGAGAAAUGCC,0.31
11,UACGUAGGUGGUUAUCCCCGGAUAGUGCUAAGGGGGCCUGGAAGUUUGGACUGGGCAGAGCCCAACACAGCGUGGCAAAGUGGCUGUGGCUAUACUGCCUCCCUGGAUUCCUCGUCACUCAGCAGGGCAUCUUUGAGAGAAAUGCC,0.29
12,UACGUAGGUGGUUUUCCCCUGAUAGUGCUAAGGGGGCCUGGAAGUUUGGACUGGGCAGAGCUCAACACAGCGUGGCAAAGUGGCUGUGGCUAGACUGCCUCUCUGGACUCCUCGUCACUCAGCAGGGCAUCUCUGAGCGAGAUGCC,2.07
13,UACGUAGGUGGUUUUCCCCUGAUAGUGCUAAGGGGGCCUGGAAGUAUGGACUGGGCAGAGCUCUACACAGCGUGGCAAAGUGGCUGUGGCUGGACUGCCUCUCUGGAUUCCUCGUCACUCAGCAGGGCAUCUCUGAGAGAAAUGCC,0.2
14,UACGUAGGUGGUUUUCCCCUGAUAGCGCUAAGGGGGCCUGGAAGUUUGGACUGGGCAGAGCUCAACACAGCGUGGCAGUGUGGCUGUGGCUAGACUGCCUCUCUGGAUUCCUCGUCACUCAGCAGGGCAUCUCUGAGAGAAAUGCC,0.88
15,UACGUAGGUGGUUUUCCCCUGAUAGUGCUAAGGGGGCCUGGAAGUUUGGACUGGGCGGAGCUCAACACAGCGUGGCAAAGUGGUUGUGGCUAGACUGCCUCUCUGGAUUCCUCGUCACCCAGCAGGGCAUCUCUGAGAGAAAUGCC,0
16,UACGUAGGUGGUUUUCCCCUGAUAGUGCUAAGGGGGCCUGGAAGUCUGGACUGGGCAGAGCUCAACACAGCGUGGCAAAGUGGCUGUGGCUAGACUGCCUCUCUGGAUUCCUCGUCACUCGUCAGGGCAUCUCUGAGAGAAAUGCC,2.02
17,UACGUAGGUGGUUUUCCCCUGAUAGUGCUAAGGGGGCCUGGAAGUUCGGACUGGGCAGAGCUCAACACAGCGUGGCAAAGUGGCCGUGGCUAGACUGCCUCUCUGGAUACCUCGUCACUCAGCAGGGCAUCUCUGAGAGAAAUGCC,0.7
18,UACGUAGGUGGUUUUCCCCUGAUAGUGCUAAGGGGGCCUGGAAGUUUGGACUGGGCAGAGCUCAACACAGCGUGGCAAAGUGGCAGUGGCUGGAUUGCCUCUCUGGAUUCCUCGUCACUCAGCAGGGCAUCUCUGAGAGAAAAGCC,0.66
19,UACGUAAGUGGUUUUCCCCUGAUAGUGGUAAGGGGGCCUGGAAGUUUGGACUGGGCAGAGCUCAACACAGCGUGGCAAAGUGGCUGUGGCUAGACUGCCUCUCUGGAUUCCUCGUCACUCAGCAGGGCACCUCUGAGAGAAAUGCC,0.78
